Assay results taken from PubChem BioAssay AID463173 (ICCB-Longwood Screening Facility, Harvard Medical School, 2010).
The campaign covered roughly 52,000 compounds. About 1,700 (3.3%) were called active. Cut-off read from the data, not from the text of the source: active = survival mostly below about 52% (no sharp cut-off); inactive = mostly above about 56%. The list shows a part of the results.

Test system: Wild type
Experiment: growth inhibition of S. aureus wild type versus tarO mutant, primary screen, teichoic acid synthesis inhibitors, RN4220, OD600 (AID 463173)
Conditions: S. aureus RN4220 wild type/DeltatarO growth, OD600, 18 h, hits give low values, screened at 18.75 µg/mL (by protocol)

Row | SMILES | survival
1 | COc1ccc(C)cc1NC(=O)C1CCCN(S(=O)(=O)c2ccc3[nH]c(=O)ccc3c2)C1 (stereo unspecified) | inactive: 93%
2 | O=C(COc1ccc2ccccc2c1)Nc1ccc(NC(=O)c2ccco2)cc1 | inactive: 108%
3 | COc1cc(NC(=O)CN2C(=O)CN(C)C(=O)c3ccccc32)cc(OC)c1OC | inactive: 129%
4 | CCCCN1CC(c2nc3ccccc3n2CCCCOc2ccc(C)c(C)c2)CC1=O (stereo unspecified) | inactive: 24%
5 | COc1ccc(OC)c(NS(=O)(=O)c2ccc3[nH]c4c(c3c2)CCCCC4)c1 | inactive: 85%
6 | Cc1ccc(F)c(NC(=O)Nc2ccc3snnc3c2)c1 | inactive: 117%
7 | O=C1c2[nH]nc(-c3ccccc3O)c2C(c2cccc(Cl)c2)N1Cc1cccnc1 (stereo unspecified) | inactive: 63%
8 | O=C(N/N=C/C=C/c1ccco1)c1ccccc1F | inactive: 105%
9 | O=C(/C=C/c1ccco1)ON1C(=O)c2ccccc2C1=O | inactive: 117%
10 | CCOc1ccc(CCNC(=O)c2cn(CC)c3ccc(S(=O)(=O)N4CCCCCC4)cc3c2=O)cc1OCC | inactive: 83%
11 | CC(=O)N1CCCc2cc(S(=O)(=O)N(C)CC(=O)Nc3cccc(C)c3C)ccc21 | inactive: 73%
12 | Cc1cccc(CNC(=O)Cn2ccc3cc(S(=O)(=O)N4CCCC4)ccc32)c1 | inactive: 69%
13 | O=C(NCCN1CCN(c2cccc(Cl)c2)CC1)C1COc2ccccc2C1 (stereo unspecified) | inactive: 87%
14 | CN(C)S(=O)(=O)c1ccc(C(=O)NC2CC(=O)N(c3ccc4c(c3)OCCO4)C2)cc1 (stereo unspecified) | inactive: 64%
15 | CCOC(=O)c1cc(-c2ccc(C)cc2)n(CCC(=O)Nc2ccc(C(C)C)cc2)c1C | inactive: 95%
16 | Cc1cccc(NC(=O)CS(=O)(=O)c2nc(-c3ccccc3)cn2-c2cccc(Cl)c2)c1C | inactive: 89%
17 | C[n+]1ccn(CC(=O)c2ccccc2)c1 | inactive: 101%
18 | COc1cc(C2C(C(=O)Nc3ccc(C)cc3C)=C(C)Nc3nc4ccccc4n32)cc(OC)c1OC (stereo unspecified) | inactive: 73%
19 | Cc1cccc(NC(=O)Cn2nnc(C(=O)Nc3ccccc3Br)c2N)c1C | active: 0%

Row | SMILES | survival
20 | Cn1cc(C(=O)NCc2ccccc2)c(=O)c2cc(S(=O)(=O)N3CCOCC3)ccc21 | inactive: 80%
21 | CC(C)C(c1nnnn1CCc1ccccc1)N(Cc1ccco1)Cc1ccccc1Cl (stereo unspecified) | inactive: 121%
22 | O=C(NC1CC(=O)N(c2ccc(Cl)cc2)C1)c1ccc2c(c1)OCO2 (stereo unspecified) | inactive: 68%
23 | COc1cccc(-c2nc(CS(=O)(=O)CC(=O)Nc3c(C)cc(C)cc3C)c(C)o2)c1 | inactive: 99%
24 | COc1cccc(N2CCN(C(=O)C3CCN(S(=O)(=O)c4c(C)noc4C)CC3)CC2)c1 | inactive: 87%
25 | CSc1ccc(CCNC(=O)CN2C(=O)c3cccnc3Oc3ccc(C)cc32)cc1 | inactive: 73%
26 | COc1cccc(C(O)C(F)(F)F)c1 (stereo unspecified) | inactive: 112%
27 | N=c1n(CCN2CCCCC2)c2ccccc2n1CC(O)COc1ccc(Cl)cc1Cl (stereo unspecified) | active: -3%
28 | Cc1ccc2c(=O)cc(C(=O)N(Cc3ccc(N(C)C)cc3)C3CCS(=O)(=O)C3)oc2c1 (stereo unspecified) | inactive: 111%
29 | CCCN1CCN(CCCNC(=O)Cn2nc(CC)n3c(cc4occc43)c2=O)CC1 | inactive: 122%
30 | Cc1cc(NC(=O)N(C)CCc2c(C)nn(C)c2C)ccc1Br | inactive: 67%
31 | CC1(C)O[C@H]2[C@@H](O1)[C@@H](C(=O)Nc1ccc(F)c(F)c1)O[C@@H]1OC(C)(C)O[C@@H]12 | inactive: 106%
32 | COc1ccc(Cn2c(SCc3ccc(C(=O)NCc4cccs4)cc3)nc3cccnc32)cc1 | inactive: 75%
33 | CCc1cccc(C)c1NC(=O)CSc1nc2ccccc2nc1N1CCOCC1 | inactive: 75%
34 | COc1ccccc1CN1C(=O)CN(C2CCCCCC2)C(=O)C1c1ccc(C)cc1 (stereo unspecified) | inactive: 92%
35 | Cc1cc(F)ccc1NS(=O)(=O)c1c(C)nc2scc(C)n2c1=O | inactive: 73%
36 | Fc1ccc(Nc2ncnc3onc(-c4ccc(Cl)cc4)c23)cc1Cl | inactive: 71%
37 | CCOc1ccc(CCNC(=O)c2ccc3c(c2)N(Cc2ccc(C)cc2)CCS3)cc1 | inactive: 81%
38 | O=C(C1CCCN(S(=O)(=O)c2ccc(Br)s2)C1)N1CCN(c2ccccc2F)CC1 (stereo unspecified) | inactive: 68%

Row | SMILES | survival
39 | Cc1ccc2[nH]c(-c3ccccc3)c(CN(C)C)c(=O)c2c1 | inactive: 110%
40 | CCOC(=O)c1cn(CC(=O)Nc2ccc(OC)cc2OC)nn1 | inactive: 88%
41 | CCN(C(=O)c1sc2nc3n(c(=O)c2c1C)CCCCC3)c1ccc(OC)cc1 | inactive: 83%
42 | COc1ccc(C)cc1NC(=O)NC(C)c1c(-n2cccc2)sc(C)c1C (stereo unspecified) | inactive: 39%
43 | CCN(CC)CCCNc1sc(S(=O)(=O)c2ccccc2)nc1S(=O)(=O)c1ccc(Cl)cc1 | inactive: 88%
44 | CCOC(=O)c1c(C)[nH]c(CCC(=O)NC(C)c2ccccc2)c1C (stereo unspecified) | inactive: 71%
45 | Cc1ccc(Cl)cc1NC(=O)Cn1c(=O)n(CCC(=O)NCc2ccc3c(c2)OCO3)c(=O)c2sccc21 | inactive: 108%
46 | COC(=O)C(NC(=O)CCc1c(C)nc2c(-c3ccccc3)c(C)nn2c1C)C(C)C (stereo unspecified) | inactive: 120%
47 | CCCC(=O)Nc1nnc(S(=O)(=O)N2CCCCCC2)s1 | inactive: 85%
48 | O=C(NCc1ccc(Cl)cc1)c1ccc(CN2CCOCC2)cc1 | inactive: 101%
49 | CC(C)Cc1ccc(S(=O)(=O)N2CCN(Cc3noc(CCC(=O)N4CCCCC4)n3)CC2)cc1 | inactive: 70%
50 | COc1ccc(C2C(C(=O)Nc3ccccc3)=C(C)Nc3nc(SCC(=O)c4ccc(C)cc4)nn32)cc1 (stereo unspecified) | inactive: 70%
51 | CC1=C(c2ccc(F)cc2)S(=O)(=O)N=C1N1CCC(C(=O)NCCc2ccccc2C)CC1 | inactive: 100%
52 | Cc1c(C(=O)Nc2ccc(-n3c(C)nc4ccccc4c3=O)cc2)cccc1[N+](=O)[O-] | inactive: 80%
53 | Cc1cc(C)nc(-n2nc(C)c3c2NC(=O)CC3c2cccc(O)c2)n1 (stereo unspecified) | inactive: 89%
54 | CCOc1cc2c(cc1OCC)C(CC(=O)O)N(C(=O)Nc1ccccc1C(F)(F)F)CC2 (stereo unspecified) | inactive: 76%
55 | NC(=O)CN1CCN(Cc2ccc3c(c2)OCO3)CC1 | inactive: 116%
56 | O=C(O)C1C2C=CC(C2)C1C(=O)NC1CCN(Cc2ccccc2)CC1 (stereo unspecified) | inactive: 113%
